Test results: PubChem BioAssay AID588342 (National Center for Advancing Translational Sciences (NCATS), 2011)
The campaign covered roughly 360,000 compounds. About 25,000 (6.9%) were called active. The inconclusive results got no clear call from the source; some entries with a clear call stand among them for comparison. The call rests on the fitted dose curve; in most records, active means well fitted inhibition curve with a large enough effect; inconclusive means small, poorly fitted or top-dose-only effect; inactive means flat fitted curve, though single readings scatter. Potencies beside an inconclusive call are fits to weak or partial responses and may not hold up.

Target: Luciferin 4-monooxygenase (Photinus pyralis) (UniProt P08659)
UniProt P08659, sequence (P08659 whole entry, looked up): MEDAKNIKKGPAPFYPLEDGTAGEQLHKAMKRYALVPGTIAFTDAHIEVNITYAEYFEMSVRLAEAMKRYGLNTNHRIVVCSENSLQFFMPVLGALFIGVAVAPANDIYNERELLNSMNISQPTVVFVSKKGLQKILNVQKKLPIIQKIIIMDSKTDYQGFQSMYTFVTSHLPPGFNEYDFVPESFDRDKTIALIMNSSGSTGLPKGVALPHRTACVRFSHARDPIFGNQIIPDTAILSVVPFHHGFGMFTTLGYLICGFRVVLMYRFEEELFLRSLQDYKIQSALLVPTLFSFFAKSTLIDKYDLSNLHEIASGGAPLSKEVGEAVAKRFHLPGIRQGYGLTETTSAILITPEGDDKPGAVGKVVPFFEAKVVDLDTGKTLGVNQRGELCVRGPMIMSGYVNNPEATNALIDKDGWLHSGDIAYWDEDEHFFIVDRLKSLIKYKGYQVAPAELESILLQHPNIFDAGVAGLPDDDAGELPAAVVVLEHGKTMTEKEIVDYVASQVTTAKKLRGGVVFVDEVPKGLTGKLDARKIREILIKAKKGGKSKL
Experiment: qHTS profiling assay for firefly luciferase inhibitor/activator using purifed enzyme and Km concentrations of substrates (counterscreen for miR-21 project); further: nearly all actives have a fitted effect of over 55% in size;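 on activity change, negative = inhibition: plate controls were vehicle for no effect and reference inhibitor for full effect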
Conditions: purified FLuc, luminescence inhibition; activity change, negative = inhibition: at 57.5 µM (top of the series)
Method in brief: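 Purified P. pyralis luciferase, 10 nM final, with Km-level 10 uM D-luciferin and 10 uM ATP in 50 mM Tris acetate pH 7.5, 10 mM Mg acetate, 0.01% Tween-20, 0.05% BSA; 6-point qHTS titration about 60 µM downward; luminescence read.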
Potency means the concentration at half of the fitted maximal effect; tags describe the fitted curve by direction and shape.

| SMILES | Potency | activity change, negative = inhibition |
| --- | --- | --- |
| Cc1ccc(OCC(=O)Nc2ccncc2)cc1 | active: 13.5 µM | – |
| C/C(Cc1ccccc1)=N\NC(=O)CNC(=O)c1cccc(F)c1 | inconclusive: 26.9 µM [inhibitor, single point] | – |
| CCOC(=O)C1CCCN(C(=O)c2cc(COc3ccc(C)nc3)on2)C1 (stereo unspecified) | inconclusive: 19 µM [inhibitor, single point] | – |
| Cc1ccc(NC(=O)c2cccc(N3CCCS3(=O)=O)c2)cc1C | active: 19 µM | – |
| CCOc1ccc2nc(SCC(=O)N3CCN(C(=O)c4ccco4)CC3)sc2c1 | active: 16.9 µM | – |
| O=C(N/C(=C\c1ccc(F)cc1)C(=O)N1CCOCC1)c1ccccc1 | – | inactive: -1.73% |
| CC(C(=O)Nc1ccccc1C(F)(F)F)n1nnc2sc3c(c2c1=O)CCCC3 (stereo unspecified) | – | inactive: 1.71% |
| Clc1ccccc1CSc1nnc(-c2ccco2)c(-c2ccco2)n1 | inconclusive: 16.9 µM [inhibitor, partial curve] | – |
| Cc1cc(C)cc(NC(=O)c2sc3nc4n(c(=O)c3c2C)CCC4)c1 | inconclusive: 23.9 µM [inhibitor, single point] | – |
| Cc1ccc(N=Cc2nc(-c3ccco3)oc2O)cc1 | active: 4.26 µM | – |
| COC(=O)c1ccc(NC(=O)CNc2ccccc2)cc1 | active: 23.9 µM | – |
| O=C(NCc1ccc2c(c1)OCO2)C1COc2ccccc2O1 (stereo unspecified) | inconclusive: 30.1 µM [inhibitor, partial curve, poor fit] | – |
| CN(C)C(CNC(=O)c1ccc(OCc2cn3ccccc3n2)cc1)c1ccco1 (stereo unspecified) | inconclusive: 21.3 µM [inhibitor, single point] | – |
| CCc1ccc(C(c2ccccc2)c2c[nH]c3ccc(C)cc23)s1 (stereo unspecified) | inconclusive: 37.9 µM [inhibitor, partial curve, poor fit] | – |
| COC(=O)C1=C(CS(=O)(=O)c2ccccc2)NC(=O)NC1c1ccc(O)cc1 (stereo unspecified) | – | inactive: 7.1% |
| COc1ccc(-c2nc(CN3CCN(Cc4cccc(F)c4)CC3)c(C)o2)cc1 | – | inactive: -2.82% |
| CCOc1cc(NC(=S)NCc2ccco2)c(OCC)cc1NC(=O)CC(C)C | – | inactive: -1.08% |
| C#CCSc1ncc(S(=O)(=O)c2ccccc2)c(=O)[nH]1 | inconclusive: 21.3 µM [inhibitor, partial curve] | – |
| CC1CCN(c2ccc(C(=O)Nc3ccc4c(c3)OCO4)cc2[N+](=O)[O-])CC1 | inconclusive: 21.3 µM [inhibitor, partial curve, poor fit] | – |
| COC(=O)c1ccc(/C=C/C(=O)c2cccc(OC)c2)cc1 | active: 9.53 µM | – |
| Cc1ccc(-c2nc3cc(NS(=O)(=O)c4ccc(C)cc4)ccc3o2)cc1 | inconclusive: 26.9 µM [inhibitor, partial curve] | – |
| Cc1ccc(/C=N\Nc2cn[nH]c(=O)c2Cl)cc1 | active: 23.9 µM | – |
| O=C(N=C1c2ccccc2CN1c1cccc(Cl)c1)c1cccnc1 | inconclusive: 37.9 µM [inhibitor, partial curve, poor fit] | – |
| Cc1ccc(/C=C2/SC(=O)N(CC(=O)N3CCOCC3)C2=O)s1 | inconclusive: 21.3 µM [inhibitor, partial curve, poor fit] | – |

| SMILES | Potency | activity change, negative = inhibition |
| --- | --- | --- |
| O=C(Nc1nc(-c2ccc3c(c2)OCO3)cs1)C1COc2ccccc2O1 (stereo unspecified) | inconclusive: 37.9 µM [inhibitor, single point] | – |
| CC(C)(C)NC(=O)c1ccc(COc2ccccc2Br)o1 | inconclusive: 37.9 µM [inhibitor, partial curve, poor fit] | – |
| S=C(NC1CCCCC1)N(CCc1ccccc1)CCc1ccccc1 | – | inactive: 1.48% |
| Cc1ccc(C(=O)Nc2ccc(CN3CCS(=O)(=O)CC3)cc2)cc1C | active: 19 µM | – |
| Cc1cc(C)c(NC(=O)C2=COCCO2)c(C)c1 | inconclusive: 30.1 µM [inhibitor, partial curve, poor fit] | – |
| Cc1ccccc1OCc1cc(=O)n2c(-c3ccccc3)csc2n1 | inconclusive: 16.9 µM [inhibitor, partial curve, poor fit] | – |
| CCOc1ccc(-c2cc3nc(C4CCN(C(=O)OC(C)(C)C)CC4)c(C(=O)Nc4ccc(C)c(F)c4)cn3n2)cc1 | – | inactive: 4.44% |
| O=C(Nc1ccccc1)O/N=C1/CCCc2occc21 | active: 16.9 µM | – |
| CCN(CC)CC(=O)Nc1ccc(C)cc1Br | inconclusive: 26.9 µM [inhibitor, partial curve, poor fit] | – |
| Cc1ccc(C)n1-n1cnc2sc(-c3ccccc3)cc2c1=O | inconclusive: 37.9 µM [inhibitor, partial curve, poor fit] | – |
| CCC(=O)N1CCc2cc(Br)cc(S(=O)(=O)N3CCC(C(=O)N(CC)CC)CC3)c21 | – | inactive: -6.94% |
| COc1ccc(C2C=C(C)Nc3nc4ccccc4n32)cc1 (stereo unspecified) | inconclusive: 23.9 µM [inhibitor, partial curve, poor fit] | – |
| CCc1ccc(NC(=O)C2CCC(CNS(=O)(=O)c3cccs3)CC2)cc1 (stereo unspecified) | – | inactive: -5.59% |
| C/C(=N\Nc1ccc(F)cc1F)c1ccc(Br)s1 | inconclusive: 23.9 µM [inhibitor, partial curve, poor fit] | – |
| O=C(CCS(=O)(=O)c1ccccc1)N1CCN(c2ccccc2F)CC1 | active: 10.7 µM | – |
| Cc1ccccc1NC(=O)c1c(NC(=O)c2ccncc2)sc2c1CCC(C(C)(C)C)C2 (stereo unspecified) | inconclusive: 2.39 µM [inhibitor, partial curve, poor fit] | – |
| Cc1ccsc1C(=O)Nc1nccs1 | inconclusive: 37.9 µM [inhibitor, single point] | – |
| CCn1cc(CNC(=O)c2cc(COc3ccc(F)cc3Cl)on2)cn1 | inconclusive: 37.9 µM [inhibitor, partial curve, poor fit] | – |
| COc1ccccc1-c1cc2nc(C)c(CCC(=O)NCc3ccc(F)cc3)c(C)n2n1 | inconclusive: 23.9 µM [inhibitor, partial curve, poor fit] | – |
| Cc1ccc(NC(=O)Nc2nc3ccccc3s2)cc1NC(=O)Nc1nc2ccccc2s1 | inconclusive: 9.53 µM [inhibitor, partial curve, poor fit] | – |
| CCOc1ccccc1NC(=O)c1cc2cc(C)ccc2n1C | inconclusive: 19 µM [inhibitor, partial curve, poor fit] | – |
| COc1cccc(CN2CCC(n3nccc3NC(=O)CCCc3ccccc3)CC2)c1 | – | inactive: -1.35% |
| CC(/C=C1\SC(=S)N(CCC(=O)Nc2nc(C)cs2)C1=O)=C\c1ccccc1 | inconclusive: 30.1 µM [inhibitor, partial curve, poor fit] | – |
| COc1cc(-c2nc(-c3ccccc3)c(-c3cc([N+](=O)[O-])ccc3C)[nH]2)cc(OC)c1OC | – | inactive: -7.53% |

| SMILES | Potency | activity change, negative = inhibition |
| --- | --- | --- |
| CC1=NOC(=O)/C1=C/c1ccc(O)cc1 | inconclusive: 37.9 µM [inhibitor, single point] | – |
| CC(=O)c1ccc(NS(=O)(=O)c2cnc(N)nc2)cc1 | – | inactive: -8.89% |
| CCOc1ccccc1NC(=O)Cc1csc(COc2cccc(C)c2)n1 | inconclusive: 16.9 µM [inhibitor, partial curve, poor fit] | – |
| CCC(=O)c1cn(CC(=O)Nc2cc(C)ccc2C)c2ccccc12 | inconclusive: 37.9 µM [inhibitor, partial curve, poor fit] | – |
| Cc1ccc(C(=O)Nc2ccc3c(c2)CCC3)o1 | active: 4.26 µM | – |
| N#Cc1cn(CC(=O)NCC2CCCO2)c2ccccc12 (stereo unspecified) | – | inactive: 7.34% |
| O=C1NC(CCc2ccccc2)C(=O)N1CCOc1cccc(Br)c1 (stereo unspecified) | inconclusive: 26.9 µM [inhibitor, partial curve, poor fit] | – |
| COc1cccc2sc(Nc3nc(-c4cc5ccccc5oc4=O)cs3)nc12 | inconclusive: 1.51 µM [inhibitor, full curve] | – |
| CCOc1ccc(CN2C(=O)c3ccccc3Sc3ccc(C(=O)NCCc4ccccc4)cc32)cc1 | inconclusive: 12 µM [inhibitor, partial curve, poor fit] | – |
| CCCc1c(C(=O)N/N=C(/C)c2ccncc2)nnn1-c1nonc1N | – | inactive: 0.704% |
| Cc1c(CCC(=O)O)c(=O)oc2cc3occ(-c4ccc(F)cc4)c3cc12 | inconclusive: 37.9 µM [inhibitor, single point] | – |
| O=C(c1noc2c1CCc1ccccc1-2)N1CCc2ccccc2C1 | inconclusive: 37.9 µM [inhibitor, single point] | – |
| COc1ccc(C2=Nc3ccccc3OC2)cc1 | active: 0.849 µM | – |
| O=C(COC(=O)c1ccccn1)c1ccc([N+](=O)[O-])cc1 | inconclusive: 37.9 µM [inhibitor, single point] | – |
| CCc1ccc(NC(=O)C2CCCN(c3nn4cc(-c5ccc(OC)cc5)nc4s3)C2)cc1 (stereo unspecified) | inconclusive: 21.3 µM [inhibitor, partial curve, poor fit] | – |
| CCOc1ccc(C2C(C(=O)OC)=C(C)NC3=C2C(=O)c2ccccc23)cc1OC (stereo unspecified) | inconclusive: 26.9 µM [inhibitor, partial curve, poor fit] | – |
| Cc1nnc(SCc2ccc(C(=O)Nc3cc(Cl)ccc3C)cc2)s1 | active: 15.1 µM | – |
| COc1ccc2c(=O)c(-c3ccc(OC)c(OC)c3)coc2c1 | active: 7.57 µM | – |
| Cc1cccc(NC(=O)NNC(=O)c2sccc2-n2cccc2)c1 | inconclusive: 26.9 µM [inhibitor, partial curve, poor fit] | – |
| CCCCC(=O)N(Cc1nc2sc(C)c(C)c2c(=O)[nH]1)C1CCCC1 | – | inactive: -4.32% |
| CCOC(=O)c1c(C)nc2ccccc2c1C | inconclusive: 33.8 µM [inhibitor, single point] | – |
| Cc1cc(NC(=O)c2cccs2)ncc1NC(=O)c1cccc(F)c1 | active: 19 µM | – |
| COc1cc(/C=C/C(=O)O)ccc1OS(=O)(=O)c1ccc(C)cc1 | inconclusive: 26.9 µM [inhibitor, partial curve, poor fit] | – |
